Experimental data as given in a collection of fitness landscapes (doi:10.1126/science.1257360).
This is one part of the list.

B1: PhoQ; a variant is named by its letters at X, in order, P23837 (parent)
chain: MKKLLRLFFPLSLRVRFLLATAAVVLVLSLAYGMVALIGYSVSFDKTTFRLLRGESNLFYTLAKWENNKLHVELPENIDKQSPTMTLIYDENGQLLWAQRDVPWLMKMIQPDWLKSNGFHEIEADVNDTSLLLSGDHSIQQQLQEVREDDDDAEMTHSVAVNVYPATSRMPKLTIVVVDTIPVELKSSYMVWSWFIYVLSANLLLVIPLLWVAAWWSLRPIEALAKEVRELEEHNRELLNPATTRELTSLVRNLNRLLKSERERYDKYRTTLTDLTHSLKTPLXXLQXXLRSLRSEKMSVSDAEPVMLEQISRISQQIGYYLHRASMRGGTLLSRELHPVAPLLDNLTSALNKVYQRKGVNISLDISPEISFVGEQNDFVEVMGNVLDNACKYCLEFVEISARQTDEHLYIVVEDDGPGIPLSKREVIFDRGQRVDTLRPGQGVGLAVAREITEQYEGKIVAGESMLGGARMEVIFGRQHSAPKDE

Variants of: B1
Assay: enrichment ratio after two sorts for PhoP signalling (ratio (wild type AVST 3.29)); higher = more functional
Conditions: with PhoP (E. coli)

| Variant | enrichment ratio |
| --- | --- |
| MAVL | 2.43 |
| EDLS | ≤ 0.25 |
| MLHC | ≤ 0.25 |
| DYRA | ≤ 0.25 |
| ATKQ | ≤ 0.25 |
| WQCQ | ≤ 0.25 |
| AVIM | 2.23 |
| WYVC | ≤ 0.25 |
| VKSL | ≤ 0.25 |
| PESQ | ≤ 0.25 |
| DKPL | ≤ 0.25 |
| IVNW | ≤ 0.25 |
| HHRQ | ≤ 0.25 |
| HTFR | ≤ 0.25 |
| LRVI | ≤ 0.25 |
| MFCD | ≤ 0.25 |
| WCVP | ≤ 0.25 |
| SCLS | 9.62 |
| TVDQ | ≤ 0.25 |
| DPNP | ≤ 0.25 |
| NEEL | ≤ 0.25 |
| LPCS | ≤ 0.25 |
| ELLQ | ≤ 0.25 |
| MLYE | ≤ 0.25 |
| PFIM | 0.672 |

| Variant | enrichment ratio |
| --- | --- |
| VYTP | ≤ 0.25 |
| QLGH | ≤ 0.25 |
| EMVY | ≤ 0.25 |
| RVVY | ≤ 0.25 |
| FFRT | ≤ 0.25 |
| DDDK | ≤ 0.25 |
| DFNL | ≤ 0.25 |
| WVPL | ≤ 0.25 |
| ICFD | ≤ 0.25 |
| KIPY | ≤ 0.25 |
| LKEA | ≤ 0.25 |
| ANVY | ≤ 0.25 |
| YPMC | ≤ 0.25 |
| INGP | ≤ 0.25 |
| MLED | ≤ 0.25 |
| KTVC | ≤ 0.25 |
| FNLL | 6.59 |
| FCNH | ≤ 0.25 |
| ATPG | ≤ 0.25 |
| WEMM | ≤ 0.25 |
| YKNV | ≤ 0.25 |
| TQHH | 3.33 |
| VRKY | ≤ 0.25 |
| TNPN | ≤ 0.25 |
| FEFQ | ≤ 0.25 |

| Variant | enrichment ratio |
| --- | --- |
| LKME | ≤ 0.25 |
| SAKA | ≤ 0.25 |
| GFCG | ≤ 0.25 |
| AMFL | ≤ 0.25 |
| NRTH | ≤ 0.25 |
| REKT | ≤ 0.25 |
| WNNL | ≤ 0.25 |
| NYES | ≤ 0.25 |
| FYQD | ≤ 0.25 |
| LHFH | ≤ 0.25 |
| RGYR | ≤ 0.25 |
| TISM | 27.4 |
| VVAS | ≤ 0.25 |
| DWRP | ≤ 0.25 |
| WSEP | ≤ 0.25 |
| DGDS | ≤ 0.25 |
| QTCT | ≤ 0.25 |
| TMCG | 15 |
| PNRI | ≤ 0.25 |
| EYKA | ≤ 0.25 |
| HAIF | ≤ 0.25 |
| DSHQ | ≤ 0.25 |
| NHCM | ≤ 0.25 |
| SNKP | ≤ 0.25 |
| NGLT | ≤ 0.25 |

| Variant | enrichment ratio |
| --- | --- |
| NQYE | ≤ 0.25 |
| VRAP | ≤ 0.25 |
| FGSF | ≤ 0.25 |
| NRYE | ≤ 0.25 |
| FVSG | ≤ 0.25 |
| HYKP | ≤ 0.25 |
| FKAF | ≤ 0.25 |
| SNEC | ≤ 0.25 |
| RRTP | ≤ 0.25 |
| INYL | ≤ 0.25 |
| EDMM | ≤ 0.25 |
| EMTS | ≤ 0.25 |
| HGEF | ≤ 0.25 |
| MGGV | 7.12 |
| RHVY | ≤ 0.25 |
| YGGR | ≤ 0.25 |
| MEEP | ≤ 0.25 |
| IYKH | ≤ 0.25 |
| YMVS | ≤ 0.25 |
| RAVW | ≤ 0.25 |
| GKHI | ≤ 0.25 |
| QNIM | ≤ 0.25 |
| WYCD | ≤ 0.25 |
| YTKG | ≤ 0.25 |
| TKML | 19.2 |

| Variant | enrichment ratio |
| --- | --- |
| GSEC | ≤ 0.25 |
| VSEY | ≤ 0.25 |
| PDRW | ≤ 0.25 |
| WWLQ | ≤ 0.25 |
| TDMN | 5.19 |
| EFGH | ≤ 0.25 |
| NKNS | ≤ 0.25 |
| LGFQ | 9.07 |
| HRCR | ≤ 0.25 |
| GNGI | ≤ 0.25 |
| NNWR | ≤ 0.25 |
| NVFR | 0.485 |
| ANIH | ≤ 0.25 |
| LWWT | ≤ 0.25 |
| GHYD | ≤ 0.25 |
| DCHN | ≤ 0.25 |
| RNWG | ≤ 0.25 |
| YHNM | ≤ 0.25 |
| WTQF | ≤ 0.25 |
| YVSP | ≤ 0.25 |
| MFMR | ≤ 0.25 |
| QSTH | ≤ 0.25 |
| QMTC | ≤ 0.25 |
| NPKH | ≤ 0.25 |
| MRAG | ≤ 0.25 |

| Variant | enrichment ratio |
| --- | --- |
| ELIH | ≤ 0.25 |
| YTEQ | ≤ 0.25 |
| HWMI | ≤ 0.25 |
| FPWF | ≤ 0.25 |
| MPCP | ≤ 0.25 |
| PKVD | ≤ 0.25 |
| WGLY | ≤ 0.25 |
| VSLQ | 10.1 |
| DYWW | ≤ 0.25 |
| YIGG | 0.444 |
| YCCQ | 0.731 |
| KIQI | ≤ 0.25 |
| WHTE | ≤ 0.25 |
| HRAS | ≤ 0.25 |
| LVSH | ≤ 0.25 |
| TLKT | ≤ 0.25 |
| SEQT | ≤ 0.25 |
| KALA | ≤ 0.25 |
| MCFI | ≤ 0.25 |
| NSYA | ≤ 0.25 |
| GCEF | ≤ 0.25 |
| TRHS | ≤ 0.25 |
| KAIE | ≤ 0.25 |
| TAWR | ≤ 0.25 |
| ADWG | ≤ 0.25 |

| Variant | enrichment ratio |
| --- | --- |
| KCKY | ≤ 0.25 |
| TGAF | 4.1 |
| RLCW | ≤ 0.25 |
| MTAC | 1.84 |
| QTDY | ≤ 0.25 |
| WMWA | ≤ 0.25 |
| LAKQ | ≤ 0.25 |
| ERLM | ≤ 0.25 |
| AKQA | ≤ 0.25 |
| MEKR | ≤ 0.25 |
| AERC | ≤ 0.25 |
| KNSH | ≤ 0.25 |
| TMAD | ≤ 0.25 |
| LQNI | ≤ 0.25 |
| PIRE | ≤ 0.25 |
| HGAS | ≤ 0.25 |
| KEGF | ≤ 0.25 |
| LRWG | ≤ 0.25 |
| RAKI | ≤ 0.25 |
| KTRV | ≤ 0.25 |
| IQLN | ≤ 0.25 |
| RTGT | ≤ 0.25 |
| DIFG | ≤ 0.25 |
| EFWW | ≤ 0.25 |
| QGTS | ≤ 0.25 |

| Variant | enrichment ratio |
| --- | --- |
| LEEF | ≤ 0.25 |
| PYRE | ≤ 0.25 |
| NMKT | ≤ 0.25 |
| NLNA | ≤ 0.25 |
| VYAA | ≤ 0.25 |
| LDAK | ≤ 0.25 |
| GKLY | ≤ 0.25 |
| QLWQ | 11.9 |
| IPII | ≤ 0.25 |
| STYW | ≤ 0.25 |
| YHRY | ≤ 0.25 |
| TCRF | ≤ 0.25 |
| AWFN | ≤ 0.25 |
| ADGD | ≤ 0.25 |
| FMYL | ≤ 0.25 |
| IYWE | ≤ 0.25 |
| TGVY | 2.88 |
| FQRS | ≤ 0.25 |
| EMKS | ≤ 0.25 |
| KAPL | ≤ 0.25 |
